The source gives no read counts; variants with many changes may rest on few reads.
B1: LINE1-mini (parent)
chain: GGCAGAGCUCAACACAGCGUGGCAAAGUGGCUGUGGCUAGACUGCC

Variants of: B1
Assay: self-cleavage, relative activity (ratio to wild type); higher = more cleavage; in vitro, sequencing; the parent is a self-cleaving ribozyme

Row | Variant | self-cleavage
1 | GGCAGAGCUCAACCCAGCGUGGACAAGUGGCUGUGGCUAGACUGCC [A14C C23A A24C] | 0.08
2 | GUUAGAGCUGAACACAGCGUGGCAAAGUGGCUAUGGUUAGACUGCC [G2U C3U C10G G33A C37U] | 0.02
3 | GUCAGAGCUCAACACAGCGUGUCAAAGUGGCUGUGUUUAGACUGGC [G2U G22U G36U C37U C45G] | 0.01
4 | CGCAGAGCUCAACACAGGGUGGCAACGUGGCUGUGACAAGACUGCA [G1C C18G A26C G36A U38A C46A] | 0
5 | GGCAGAGCUCAACACAGCGUGGCAAAGUGGCUGUGUCUGGACUAAC [G36U A39G G44A C45A] | 0.02
6 | GGCAGAGCUCACCACAGCGUGCCAAAGUGCCUGUGGCUAGACUGCA [A12C G22C G30C C46A] | 0.01
7 | GGCAGAGCUCAACACAGCAUGGCAAAAUGGCUGUGGCUCGACUGCC [G19A G27A A39C] | 0.08
8 | UACAGAGCUCAACACAGCGCGGCAAAGUGGGUGUGGCUAGACUGAC [G1U G2A U20C C31G C45A] | 0.12
9 | GGCUGAGCUCACCACAGCGUGGCAAAGUGGCUGUGGCUAUACUGCC [A4U A12C G40U] | 0.03
10 | GGCAGAGCACAAAACAGCGUGGCAAAGUGGCUGCGGCUAGACUGCC [U9A C13A U34C] | 0.67
11 | GGCAGAUCUCAAUACAGCGUGGCAAAGUGGCUGUGGCUAGACUGUC [G7U C13U C45U] | 0.18
12 | GUCAGAGCUGAACACAGCGUGGCAAAUUGGCUGUGGCUAGUCUGCC [G2U C10G G27U A41U] | 0
13 | AGCAGAGCUCAACACAGCCUGGCAAAGUGGCCGUGGCUAGACGGCC [G1A G19C U32C U43G] | 0
14 | GGCAGAGCUUAAGGCAGCGUGGCAAAGUGACUGUGGGUAGACUGCC [C10U C13G A14G G30A C37G] | 0.03
15 | GGUAGAGCUCAACACUGCGUGGCUAAGUGGGGGUGGCUAGACUGCC [C3U A16U A24U C31G U32G] | 0.02
16 | GGCAGAGCUCAUCACAGGGUGGCAAAGUGGCUGGGGCUAGUCUGCC [A12U C18G U34G A41U] | 0.02
17 | GGCAGAGAUCAACACUGCGUGGCAAAGUGGCUGUGGGUGGACUGCC [C8A A16U C37G A39G] | 0.08
18 | GAGCGAGCUCAACACAGCGUGGCAAAGUGGCUGUGGCCAGACUGCC [G2A C3G A4C U38C] | 0.27
19 | GGCGGAGCUCAACACAGCGUGGCAAAGUGUCUGUGGAUAGACUGCC [A4G G30U C37A] | 0.06

Row | Variant | self-cleavage
20 | GGCAGAGCUCCACACAGCGUUGCAAAGUGGCUGUGGCUAGACGGCC [A11C G21U U43G] | 0.01
21 | GGCAGAGAUCAACACUGCGUGGCAAAGUGGGUGUGGCUAGACUGCC [C8A A16U C31G] | 0.03
22 | GGGAGAGCUCAACACAGCUGGAAAAAGUGGAUGUGGCUAGAUUGCC [C3G G19U U20G G22A C23A C31A C42U] | 0.09
23 | GGCAGAGCUCAACACAGCGUGGCAAGGUGGGUGUGGCUAGACUGUC [A26G C31G C45U] | 0.1
24 | GGCAGAGCUAAACACUGCGUGGCAAAGUGGCCGUGGCUAGACUGCC [C10A A16U U32C] | 0.03
25 | GGCAUAGCUCAACAAAGCGUGGCAAAGUGGCAGUGGUUAUACUGCC [G5U C15A U32A C37U G40U] | 0.05
26 | GGCAGAGCUCAACACAACGUGGCAAAGUGGCUGGGGCUAGACUCCC [G17A U34G G44C] | 0.03
27 | GGCAGAGCUCAAGACAGCCUGGCAAAGUAGCUGUGGCCAUACUGCC [C13G G19C G29A U38C G40U] | 0.03
28 | GGCAGAGCUCUACACACCGUGGCAAAGUGGCUGUGGCGAGACUGCC [A11U G17C U38G] | 0
29 | GGCAGAGCUCAAUAAUGCGUGGCAAAGUGGCUGUGGCUAGUCUGCG [C13U C15A A16U A41U C46G] | 0.05
30 | GGCAGAGCCCAACACAGAGUGGCAAAGUGGCUGUGGCUAGACUGCA [U9C C18A C46A] | 0.03
31 | GCCAGAGCUCAACACAGCGUGGCAAUGUGGCUGUGGCUAGCCUGCC [G2C A26U A41C] | 0.17
32 | GGCAGAGCUCGAUACAGCGUGGCAAAGUGGCUGUGUCUAGACUGCC [A11G C13U G36U] | 0.01
33 | GGGAUAGCUCAACACAGCGUGGCAAAGUGGCUGUGGCUAGUUUGCC [C3G G5U A41U C42U] | 0.22
34 | GGGAGAGCUCUACACAGCGUGGCAAAGUUGCUGUGGCUAGACUGCC [C3G A11U G29U] | 0.05
35 | GGCAGAGCACAUCACAGCGUGGCAAAGUGGCUGCGGCUAGACUGCC [U9A A12U U34C] | 0.04
36 | GGUAGAGCUCAACACAGCGUGGCAAAGUGGCUGUGGCUAGAUUGCA [C3U C42U C46A] | 0.05
37 | GGCAGAGCUCAACACAGCGUGGCAAAGUGGUCGUGGCUAGCAUGCC [C31U U32C A41C C42A] | 0.02
38 | GACAGAGCUCAACACAGCGUGGAAAAGUAGCUGUGGUUAGACUGCA [G2A C23A G29A C37U C46A] | 0.04

Row | Variant | self-cleavage
39 | GGAAGAGCUCAACAGAGCUUGGCAAAGUGGCUGUGGCUAGACUGCC [C3A C15G G19U] | 0.04
40 | GGCAGAGCUCAACAAAGCUUGGCAAAGUGGCUGUGGCUAGACUGAC [C15A G19U C45A] | 0.05
41 | GGCAGAGCUCAACAGAGCGUAUCAAAGUGGCGGUGCCUGGAUUGCC [C15G G21A G22U U32G G36C A39G C42U] | 0
42 | GGCUGAGCUCAACACAGCGUAGCAAAGUUGCCGUGGCUACACUGCC [A4U G21A G29U U32C G40C] | 0.01
43 | GGCAGAGCUCAACGCACCGUUUCAAAGUGGCUGUGGCUAGACUGCC [A14G G17C G21U G22U] | 0.08
44 | GGCAGGGCUCAAGACAGCGUGGCAAAGUGGCGUUGGCUAGACUGCC [A6G C13G U32G G33U] | 0.02
45 | GGCAGAGCUCAACACAGCGUGGCAAAGAGGCUGAGGCUAGAUUGCC [U28A U34A C42U] | 0.23
46 | GGCAUAGCUCAACACAGUGUGGCAAAGUGGCUGUGGCUAUACUGCC [G5U C18U G40U] | 0.07
47 | GGCAGAGAUCGACACCGCGUGGCAAAGUGUCUGUGGCCAGACUGCC [C8A A11G A16C G30U U38C] | 0.01
48 | GGCAGAGCUCGACACAGCGUGGCAAAGUGGUUGUGCCUAGACUGAC [A11G C31U G36C C45A] | 0.01
49 | GGCACAGCUUAACACAGCGUGGCAAAGUGGCUGUGGCUGGACUGCC [G5C C10U A39G] | 0.01
50 | GGCAGAGGUCAACACAGCGUGGCAAAGUGGCUGUGGCUACACUGUC [C8G G40C C45U] | 0.02
51 | GGCAGAGAUCAACACAGCGUCGAAAAGUUGCUGAGGCUAGACUGCC [C8A G21C C23A G29U U34A] | 0.49
52 | GGCAGAGCUCAUAACAGCGUCGCAAAGCGCCUGUGGCUAGACUGCC [A12U C13A G21C U28C G30C] | 0.06
53 | GGCAGAGCUCAACACUGCGUGGCACAGUGGCUGUGGCUAGAGUGCC [A16U A25C C42G] | 0.11
54 | GGCAGAGUUCAACACAGCGUGGCAAAGUGGCUGUCGCUAGACUCCC [C8U G35C G44C] | 0.09
55 | GGCAUAGCUCAACACAGCAUGGCAAAGUGGCUGUGGCAAGAAUGCC [G5U G19A U38A C42A] | 0.23
56 | GGCAGAGCUCCACACAGCGUGGCAAAGUGGGUGUUGCUAGACUGCC [A11C C31G G35U] | 0.02

Source: the RNAGym collection of RNA variant scans (doi:10.7554/elife.90254)
